In publication PMC10162974:
Where a chain is given by its changes, count along the chain named. In names and notes the source's numbering stands. These are yes or no findings as the source states them, for the method shown. Binding seen in cells or lysates may run through a third protein. Some entries that bind do so weakly or less than the wild type. Sequences can lack the tags named with a protein. One block for each binder: values may come before it.

Legend:
[1] = molecular target: Yop1p-HA I126C (S. cerevisiae) (UniProt Q12402); assay: cross-linking; disulfide cross-linking of single-Cys Yop1p-HA in yeast microsomal membrane fractions, 1 mM copper-o-phenanthroline (Cu:Phe), 30 min, room temperature; 100 mM DTT as reduced control; non-reducing SDS-PAGE, anti-HA blot
[2] = molecular target: Yop1p-HA L49C (S. cerevisiae) (UniProt Q12402); assay: as above
[3] = molecular target: Yop1p-HA W118C (S. cerevisiae) (UniProt Q12402); assay: cross-linking; disulfide cross-linking of Cys mutants of Yop1p-HA (F116C, W118C, double mutants) upon oxidation; oxidant not named for these panels
[4] = molecular target: Yop1p-HA F99C (S. cerevisiae) (UniProt Q12402); assay: cross-linking; disulfide cross-linking of single-Cys Yop1p-HA in yeast microsomal membrane fractions, 1 mM copper-o-phenanthroline (Cu:Phe), 30 min, room temperature; 100 mM DTT as reduced control; non-reducing SDS-PAGE, anti-HA blot
[5] = molecular target: Yop1p-HA L100C (S. cerevisiae) (UniProt Q12402); assay: as above
[6] = molecular target: Yop1p-HA F97C (S. cerevisiae) (UniProt Q12402); assay: as above
[7] = molecular target: Yop1p-HA L125C (S. cerevisiae) (UniProt Q12402); assay: as above
[8] = molecular target: Yop1p-HA S2C (S. cerevisiae) (UniProt Q12402); assay: cross-linking; disulfide cross-linking of single-Cys Yop1p-HA (cytosolic regions) in yeast microsomal membrane fractions, oxidation by 2 mM diamide, 30 min, room temperature; anti-HA blot

B1: Yop1p-HA I126C (protein, UniProt Q12402 1-180)
chain: MSEYASSIHSQMKQFDTKYSGNRILQQLENKTNLPKSYLVAGLGFAYLLLIFINVGGVGEILSNFAGFVLPAYLSLVALKTPTSTDDTQLLTYWIVFSFLSVIEFWSKAILYLIPFYWFLKTVFLCYIALPQTGGARMIYQKIVAPLTDRYILRDVSKTEKDEIRASVNEASKATGASVH
binding [1]: binds

B2: Yop1p-HA L49C (protein, UniProt Q12402 1-180)
chain: B1 chain with L49C, C126I
binding [2]: no binding

B4: Yop1p-HA F99C (protein, UniProt Q12402 1-180)
chain: B1 chain with F99C, C126I
binding [4]: binds weakly

B5: Yop1p-HA L100C (protein, UniProt Q12402 1-180)
chain: B1 chain with L100C, C126I
binding [5]: binds weakly

B6: Yop1p-HA F97C (protein, UniProt Q12402 1-180)
chain: B1 chain with F97C, C126I
binding [6]: binds weakly

B8: Yop1p-HA S2C (protein, UniProt Q12402 1-180)
chain: B1 chain with S2C, C126I
binding [8]: no binding

Results, then the binder that gave them:

binding [3]: no binding
B3: Yop1p-HA W118C (protein, UniProt Q12402 1-180)
chain: B1 chain with W118C, C126I

binding [7]: no binding
B7: Yop1p-HA L125C (protein, UniProt Q12402 1-180)
chain: B1 chain with L125C, C126I
